The campaign covered roughly 310,000 compounds. About 14,000 (4.5%) showed an effect of 50% or more. The effect is printed as a negative number. Some of the results follow. Where a SMILES comes first, the peptide text is derived from it. [ ]: non-standard residue; d: D form. The star is where a group is joined. ξ: configuration not given here. Cbz = O=C(OCc1ccccc1)*; OBn = c1ccc(CO*)cc1; ξP = O=C(O)C1CCCN1
These molecules were tested against human ether-à-go-go-related gene (hERG) potassium channel (human, UniProt Q12809) (assay: primary screen, population patch clamp on CHO cells stably expressing hERG).
human ether-à-go-go-related gene (hERG) potassium channel, sequence (Q12809 whole entry, looked up): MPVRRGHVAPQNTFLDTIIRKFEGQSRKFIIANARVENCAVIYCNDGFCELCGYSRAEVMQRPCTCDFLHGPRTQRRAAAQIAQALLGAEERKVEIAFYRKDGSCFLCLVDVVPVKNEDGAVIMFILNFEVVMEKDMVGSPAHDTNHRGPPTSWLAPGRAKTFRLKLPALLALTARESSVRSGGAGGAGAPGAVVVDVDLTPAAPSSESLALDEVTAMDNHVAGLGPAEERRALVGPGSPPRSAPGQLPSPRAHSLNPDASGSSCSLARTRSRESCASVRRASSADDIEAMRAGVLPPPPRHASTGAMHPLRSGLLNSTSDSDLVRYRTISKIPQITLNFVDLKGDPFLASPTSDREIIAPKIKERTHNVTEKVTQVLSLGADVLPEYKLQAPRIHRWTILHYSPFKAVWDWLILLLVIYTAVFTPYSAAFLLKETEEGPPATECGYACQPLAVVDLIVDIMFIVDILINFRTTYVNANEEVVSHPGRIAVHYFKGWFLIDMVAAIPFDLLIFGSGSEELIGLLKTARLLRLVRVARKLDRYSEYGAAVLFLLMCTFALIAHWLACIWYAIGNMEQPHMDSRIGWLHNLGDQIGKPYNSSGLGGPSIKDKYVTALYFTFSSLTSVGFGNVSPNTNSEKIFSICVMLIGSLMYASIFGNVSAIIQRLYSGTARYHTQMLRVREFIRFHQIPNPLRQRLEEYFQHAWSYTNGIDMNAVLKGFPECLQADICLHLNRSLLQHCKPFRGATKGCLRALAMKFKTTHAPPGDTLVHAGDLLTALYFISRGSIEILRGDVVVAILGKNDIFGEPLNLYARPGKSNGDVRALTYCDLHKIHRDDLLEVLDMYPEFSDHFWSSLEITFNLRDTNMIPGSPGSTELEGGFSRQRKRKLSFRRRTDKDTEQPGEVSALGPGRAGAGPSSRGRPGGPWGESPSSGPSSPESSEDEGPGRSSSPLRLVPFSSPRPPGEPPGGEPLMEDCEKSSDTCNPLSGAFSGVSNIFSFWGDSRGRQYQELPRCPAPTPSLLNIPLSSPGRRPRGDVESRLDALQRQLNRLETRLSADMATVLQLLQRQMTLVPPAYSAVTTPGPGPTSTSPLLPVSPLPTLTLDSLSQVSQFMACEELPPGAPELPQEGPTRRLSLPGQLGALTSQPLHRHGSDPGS
With CCOC(=O)c1sc(/N=C/c2c(O)n(-c3ccccc3)c(=O)[nH]c2=O)c(C#N)c1C the “hERG current change (%, negative = inhibition) at 10uM” value was 15.7%. In the case of CCOC(=O)N1CCC(N2Cc3cccc(C(=O)Nc4ccc(N(CC)CC)cc4C)c3C2=O)CC1, the “hERG current change (%, negative = inhibition) at 10uM” value is reported as -7.16%. With O=C(NCC1CCCO1)c1ccc(NC(=O)C2CC=CCC2C(=O)O)cc1 (stereo not shown) the “hERG current change (%, negative = inhibition) at 10uM” value was 12.2%. In the case of COC(=O)c1cn(-c2ccccc2)nc1C(=O)OC, the “hERG current change (%, negative = inhibition) at 10uM” value is reported as -9.6%. For Cc1cccc(CCNC(=O)c2cc(S(=O)(=O)N3CCCCC3)c[nH]2)c1, the “hERG current change (%, negative = inhibition) at 10uM” value was -15.6%. With O=C(CN1CCN(Cc2ccc(Cl)cc2)CC1)N/N=C/c1ccncc1 the “hERG current change (%, negative = inhibition) at 10uM” value was -80.1%. For O=C(O)Cn1nnnc1-c1ccc(F)cc1, the “hERG current change (%, negative = inhibition) at 10uM” value was -5.4%. COc1cccc(-c2ncc3ccccc3c2COC(=O)c2ccc(C(F)(F)F)cc2)c1 was tested, and the “hERG current change (%, negative = inhibition) at 10uM” value was 13.6%. Cc1ccc(C(=O)N2CCC(C(=O)NC3CCCC3)CC2)cc1 was tested, and the “hERG current change (%, negative = inhibition) at 10uM” value was 4.81%. With O=C(CSc1nnc(-c2ccco2)o1)NC(=O)C1COc2ccccc2O1 (stereo not shown) the “hERG current change (%, negative = inhibition) at 10uM” value was -4.34%. O=C(CCCC(=O)N1CCN(c2ccccc2F)CC1)c1ccccc1 was tested, and the “hERG current change (%, negative = inhibition) at 10uM” value was -10.7%. COCC(=O)N1CCC(n2nccc2NC(=O)c2ccccc2OC)CC1 was tested, and the “hERG current change (%, negative = inhibition) at 10uM” value was -1.85%. CCOC(=O)[C@H](CCc1ccccc1)N[C@@H](C)C(=O)N1[C@H](C(=O)O)C[C@@H]2CCC[C@@H]21 was tested, and the “hERG current change (%, negative = inhibition) at 10uM” value was 10.7%. O=C(COC(=O)c1ccc(NS(=O)(=O)c2cccs2)cc1)NCC1CCCO1 (stereo not shown) was tested, and the “hERG current change (%, negative = inhibition) at 10uM” value was 4.94%. In the case of O=C(CNC(=O)OCc1ccccc1)NCC(=O)N1CCCC1C(=O)OCc1ccccc1 (stereo not drawn) (Cbz-Gly-Gly-[ξP]-OBn), the “hERG current change (%, negative = inhibition) at 10uM” value is reported as -19.3%. With O=C(O)CCC(=O)N1N=C(c2cccs2)CC1c1cn(-c2ccccc2)nc1-c1ccccc1 (stereo not shown) the “hERG current change (%, negative = inhibition) at 10uM” value was -5.28%. With Cc1nc2ccc(C(=O)Nc3ccccc3Cl)cc2s1 the “hERG current change (%, negative = inhibition) at 10uM” value was 10.5%. With CCN(CC)S(=O)(=O)c1ccc(N2CCCC2)c(NC(=O)C2CSC3(C)CCC(=O)N23)c1 (stereo not shown) the “hERG current change (%, negative = inhibition) at 10uM” value was -24.9%. In the case of O=C(C/C=N/OCc1ccc(Cl)cc1Cl)c1ccc(Cl)cc1, the “hERG current change (%, negative = inhibition) at 10uM” value is reported as -3.48%. In the case of COc1ccc(CN2C(=O)CCC(C(=O)O)C2c2ccccc2)cc1 (stereo not shown), the “hERG current change (%, negative = inhibition) at 10uM” value is reported as 25.6%. With S=c1[nH]nc(Cn2nnc3ccccc32)n1-c1ccc(Cl)cc1 the “hERG current change (%, negative = inhibition) at 10uM” value was 17.2%. For CCCOC(=O)c1[nH]c2c(c1C)C(=O)CC(c1ccc(OC)c(OC)c1)C2 (stereo not shown), the “hERG current change (%, negative = inhibition) at 10uM” value was -4.07%. In the case of O=C(/C=C/c1ccccc1)CC(O)(c1ccccc1)C(F)(F)C(F)F (stereo not shown), the “hERG current change (%, negative = inhibition) at 10uM” value is reported as 8.24%. In the case of CC(=O)Nc1cc(C(=O)N2CCCC2)ccc1Sc1ccc(C)cc1, the “hERG current change (%, negative = inhibition) at 10uM” value is reported as -30.5%. In the case of CCOCCCNC(=O)c1cn(CC)c2ccc(S(=O)(=O)N(C)C3CCCCC3)cc2c1=O, the “hERG current change (%, negative = inhibition) at 10uM” value is reported as -55.7%. In the case of Cc1cc(NC(=O)Nc2cc(F)ccc2C)n(C)n1, the “hERG current change (%, negative = inhibition) at 10uM” value is reported as 13%. With COc1ccccc1N1CCN(S(=O)(=O)c2cccc(F)c2)CC1 the “hERG current change (%, negative = inhibition) at 10uM” value was -0.649%. With CCCc1cc2c(cc1NC(=O)c1ccc(C)cc1)OCO2 the “hERG current change (%, negative = inhibition) at 10uM” value was 0.769%. For OCc1ccc(OCCCOc2cccc3cccnc23)cc1, the “hERG current change (%, negative = inhibition) at 10uM” value was -9.43%. In the case of Cc1ccccc1NC(=S)NCC1CCN(C(C)c2ccccc2)C1 (stereo not shown), the “hERG current change (%, negative = inhibition) at 10uM” value is reported as 6.64%. In the case of CC(=O)CCSc1nnc(-c2cccc(S(=O)(=O)N3CCOCC3)c2)o1, the “hERG current change (%, negative = inhibition) at 10uM” value is reported as -8.52%. For COc1ccc(CC(C)N2CCN(Cc3ccccc3)CC2)c(OC)c1 (stereo not shown), the “hERG current change (%, negative = inhibition) at 10uM” value was -75.3%. With COc1ccc(CC2SC(=Nc3ccc(F)cc3)NC2=O)cc1 (stereo not shown) the “hERG current change (%, negative = inhibition) at 10uM” value was 9.95%. In the case of CCCSc1nnc(-c2ccccc2N)c(=O)[nH]1, the “hERG current change (%, negative = inhibition) at 10uM” value is reported as -2.4%. For Cc1nn(C)cc1/C=N\NC(=O)Cc1ccc([N+](=O)[O-])cc1, the “hERG current change (%, negative = inhibition) at 10uM” value was -16.6%. For CNS(=O)(=O)c1cc(NC(=O)c2cncn2-c2ccccc2)ccc1C, the “hERG current change (%, negative = inhibition) at 10uM” value was 11.7%. CC(C)n1cc(C(N)=S)c(=O)n(Cc2ccccc2)c1=O was tested, and the “hERG current change (%, negative = inhibition) at 10uM” value was 21.5%. With Cc1cc(CNC(=O)Cc2ccc(F)cc2)c2ccccc2n1 the “hERG current change (%, negative = inhibition) at 10uM” value was -14.7%. For COC(=O)c1ccc(NC(=O)CN2CCCC2)cc1, the “hERG current change (%, negative = inhibition) at 10uM” value was 5.33%. In the case of Cc1ccc(/C=N/NC(=O)c2nnn(-c3nonc3N)c2CNc2ccccc2)cc1, the “hERG current change (%, negative = inhibition) at 10uM” value is reported as 9.21%. COc1cc(SC)ccc1C(=O)Nc1ccc2c(c1)CCC2 was tested, and the “hERG current change (%, negative = inhibition) at 10uM” value was 13.1%. With Cc1ccccc1Cn1c(=O)n(CCCC(=O)NCc2ccco2)c(=O)c2ccccc21 the “hERG current change (%, negative = inhibition) at 10uM” value was -15.5%. With CC(C)CN1CCC(=O)N([C@H](CO)Cc2ccccc2)CC1 the “hERG current change (%, negative = inhibition) at 10uM” value was 6.64%.

Source: publication PMC4336329 (PLoS ONE, 2015)
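Note: peak tail current of the secondary pulse compared with the same well before compound.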
